Among all 310,000 compounds or so, about 2,200 (0.71%) showed an effect of 50% or more. Effects have a minus sign here. This is one part of the list.
Target: human ether-à-go-go-related gene (hERG) potassium channel (human, UniProt Q12809)
Assay: primary screen, population patch clamp on CHO cells stably expressing hERG

Sequence of human ether-à-go-go-related gene (hERG) potassium channel (Q12809 whole entry, looked up): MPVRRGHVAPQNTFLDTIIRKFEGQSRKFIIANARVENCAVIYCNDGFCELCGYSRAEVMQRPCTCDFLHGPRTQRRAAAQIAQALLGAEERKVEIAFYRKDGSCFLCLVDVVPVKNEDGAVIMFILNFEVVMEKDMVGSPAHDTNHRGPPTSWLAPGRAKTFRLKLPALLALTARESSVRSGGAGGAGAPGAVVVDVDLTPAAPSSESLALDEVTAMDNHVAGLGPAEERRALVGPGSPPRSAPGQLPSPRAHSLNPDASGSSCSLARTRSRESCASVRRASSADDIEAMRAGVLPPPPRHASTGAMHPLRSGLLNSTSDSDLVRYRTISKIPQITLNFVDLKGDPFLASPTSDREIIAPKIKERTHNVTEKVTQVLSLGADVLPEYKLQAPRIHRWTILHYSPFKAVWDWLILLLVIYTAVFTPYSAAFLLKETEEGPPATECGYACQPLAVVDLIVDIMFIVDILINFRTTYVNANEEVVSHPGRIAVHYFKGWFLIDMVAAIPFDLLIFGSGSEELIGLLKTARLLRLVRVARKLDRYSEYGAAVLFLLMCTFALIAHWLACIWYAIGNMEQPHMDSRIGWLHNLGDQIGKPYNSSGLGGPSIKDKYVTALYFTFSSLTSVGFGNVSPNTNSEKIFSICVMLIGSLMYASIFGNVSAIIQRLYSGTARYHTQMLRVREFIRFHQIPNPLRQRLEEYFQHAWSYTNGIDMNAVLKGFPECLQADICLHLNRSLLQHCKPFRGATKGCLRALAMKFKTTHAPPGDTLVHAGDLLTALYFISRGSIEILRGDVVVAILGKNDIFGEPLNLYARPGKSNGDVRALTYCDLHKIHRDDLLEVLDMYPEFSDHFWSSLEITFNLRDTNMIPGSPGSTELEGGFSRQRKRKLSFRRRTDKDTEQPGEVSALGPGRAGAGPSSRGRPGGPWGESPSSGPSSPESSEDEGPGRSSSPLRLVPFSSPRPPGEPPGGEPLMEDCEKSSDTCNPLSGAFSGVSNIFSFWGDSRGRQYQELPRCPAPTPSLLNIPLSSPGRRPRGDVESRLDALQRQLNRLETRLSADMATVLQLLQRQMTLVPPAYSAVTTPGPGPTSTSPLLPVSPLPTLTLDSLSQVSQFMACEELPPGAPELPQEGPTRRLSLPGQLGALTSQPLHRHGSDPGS

Row | Structure (SMILES) | hERG current change (%, negative = inhibition) at 1uM
1 | CC1CN(CC(=O)NCc2ccc(Cl)cc2)CC(C)O1 (stereo not drawn) | 16.6%
2 | N/C(=N\O)c1cccc(CS(=O)(=O)c2ccccn2)c1 | 19%
3 | CC(=O)Nc1ccc(Nc2cc(-c3ccccc3)nc3ncnn23)cc1 | 15.2%
4 | COc1ccc(OC)c(S(=O)(=O)N2CCNCC2)c1 | 8%
5 | O=C(c1ccc(COc2ccc3c(c2)CCC3)o1)N1CCN(c2ccccc2)CC1 | 14.5%
6 | O=C(CNC(=S)N(CCCN1CCOCC1)Cc1cccs1)NC1CCCCC1 | 4.41%
7 | CCC(=O)Nc1ccc(Cl)c(NC(=O)c2cccnc2)c1 | 9.91%
8 | Cc1csc(=O)n1CCC(=O)OCC(=O)Nc1ncc(Cl)cc1Cl | 6.26%
9 | COCn1c(COc2ccc3ccccc3c2)nc2ccccc21 | 9.13%
10 | CCC(=O)N1c2ccc(C)cc2C2=NNC(=S)NC21O (stereo not drawn) | 8.47%
11 | O=C(O)CSc1nnc(Cc2cccc3ccccc23)n1-c1cc(C(F)(F)F)cc(C(F)(F)F)c1 | 12.9%
12 | O=C(CNCc1ccccc1Cl)NCc1ccco1.O=C(O)C(=O)O | 11.1%
13 | C=CCC(O)(CC=C)C(C)N.Cl (stereo not drawn) | 28.3%
14 | COc1ccccc1N1CCN(C(=O)C(=O)c2cn(CC(=O)N3CCOCC3)c3ccccc23)CC1 | 16.7%
15 | CCn1cc(C(=O)N[C@H](C(=O)NCCO)C(C)C)c(=O)c2cc3c(cc21)OCO3 | 12.7%
16 | Cc1ccc(CCNC(=O)C2CC(c3cc(C(F)(F)F)cc(C(F)(F)F)c3)=NO2)cc1 (stereo not drawn) | 10.5%
17 | Cc1cc(S(=O)(=O)NCc2cccs2)ccc1-n1cnnn1 | 10.7%
18 | CC1=C/C(=C(\c2ccc(O)c(C)c2)c2ccccc2S(=O)(=O)O)C=CC1=O | 16.3%
19 | O=C(NNC(=O)C1C2C=CC(C2)C1C(=O)O)c1ccccc1O (stereo not drawn) | 11.7%
20 | COc1ccc(CCN2C(=O)CS/C2=N\NC(=O)c2ccc(C(C)(C)C)cc2)cc1OC | 12.5%
21 | Br.CC(=O)NNc1nc(-c2ccc(C)cc2)cs1 | 17.9%
22 | O=C1/C(=C/c2ccccc2)Nc2ccccc21 | 8.28%

Row | Structure (SMILES) | hERG current change (%, negative = inhibition) at 1uM
23 | Cc1ccc(C(=O)Nc2nnc(C3=COCCO3)o2)cc1C | 5.07%
24 | CCOC(=O)c1c(C)[nH]c(C(=O)/C(C#N)=C/c2ccc(OC)c(OC)c2)c1C | 14.6%
25 | CC(/C=C1\SC(=S)N(C(C(=O)O)c2ccccc2)C1=O)=C\c1ccccc1 (stereo not drawn) | 13.8%
26 | Cc1cc(C(=O)CSc2nn3c(=O)c(C(C)(C)C)nnc3s2)c(C)n1C | 3.46%
27 | CCn1c(C)c(C)c2cc(C(=O)NCCCN3CCN(C)CC3)ccc21 | 16.8%
28 | CCC1CCCCN1C(=O)c1c(-c2ccccc2)noc1C (stereo not drawn) | 9.42%
29 | CC(C)OC(=O)Nc1ccc2c(c1)N(C(=O)CCN1CCN(CCO)CC1)c1ccccc1CC2.Cl.O | 9.57%
30 | O=C1CCCC2=C1C(c1cccs1)Nc1ccccc1N2 (stereo not drawn) | 7.81%
31 | Cc1ccc(C)n1-c1ccc(C(=O)N/N=C/c2ccncc2)cc1 | 2.98%
32 | Cc1cc(C)n(C(=O)/C(C#N)=N/Nc2cc(Cl)cc(Cl)c2)n1 | 9.89%
33 | CCC(C)(C)NC(=O)C(c1cccs1)N(C(=O)c1ccn[nH]1)c1ccccc1 (stereo not drawn) | 1.13%
34 | Cc1ccc(C)c(OCc2cc(C(=O)N3CCNC(=O)C3)no2)c1 | 9.3%
35 | Cc1ccsc1/C=N/N=C1\C(=O)Nc2ccccc21 | 13%
36 | O=C(CCN1C(=O)c2ccc([N+](=O)[O-])cc2C1=O)Nc1nccs1 | 9.88%
37 | CCOC(=O)N1CCC(N2CCCC(CO)(Cc3ccccc3C)C2)CC1 (stereo not drawn) | 7.63%
38 | COc1ccc(CC(=O)NNc2ncnc3c2cnn3-c2ccc(C)cc2)cc1 | -0.6%
39 | O=C(Nc1ccc2[nH]c(=O)[nH]c2c1)Nc1ccc(F)cc1F | 7.17%
40 | CC(C)Cn1c(SCC(=O)N(C)c2c(N)n(Cc3ccccc3)c(=O)[nH]c2=O)nc2ccccc21 | 21%
41 | O=C(O)Cc1ccc(-n2cccc2)cc1 | 16.5%
42 | COc1ccc(CCNC(=O)c2ccc(-c3ccc([N+](=O)[O-])cc3Cl)o2)cc1OC | 6.57%
43 | COC(=O)C1Cc2c([nH]c3ccccc23)C2(CCN(Cc3ccccc3)CC2)N1 (stereo not drawn) | -8.91%
44 | COc1ccc(S(=O)(=O)N2CCCCCC2)cc1NC(=O)CN1C(=O)NC(C)(c2ccc(C)cc2)C1=O (stereo not drawn) | -0.44%

Row | Structure (SMILES) | hERG current change (%, negative = inhibition) at 1uM
45 | COc1cccc(CNC(=S)Nc2cccc(Cl)c2C)c1 | 15.7%
46 | COc1ccc(S(=O)(=O)N2CCN(CCc3ccccc3)CC2)cc1 | 9.86%
47 | Cc1ccc(-c2c[n+](Cc3ccc(Cl)c(Cl)c3)c3n2CCC3)cc1.[Cl-] | -16.3%
48 | O=C(NCc1ccco1)C(c1ccncc1)N(C(=O)Cn1nnc2ccccc21)c1ccccc1F (stereo not drawn) | 6.94%
49 | O=C1CCCN1CCCNc1ncnc2c1[nH]c1ccccc12 | 16.6%
50 | Cc1ccc(C2=NN(CCC(=O)NCc3ccc4c(c3)OCO4)C(=O)CC2)cc1 | -12.1%
51 | O=C(Nc1ccc2c(c1)CCCN2C(=O)c1ccccc1)c1ccccc1 | 8.23%
52 | Cc1cc(C)n(-c2nc3ccccc3nc2N2CCN(S(=O)(=O)c3ccc(F)c(C)c3)CC2)n1 | 15.6%
53 | CON(C)c1nc(OCCNC(=O)COc2ccc(Cl)cc2C)nc(N(C)C)n1 | 6.99%
54 | COc1cc(CC(=O)Nc2ccc(S(=O)(=O)N(C)C)cc2)cc(OC)c1OC | -1.83%
55 | COc1ccc(CCC(=O)Nc2nccs2)cc1OC | 8.81%
56 | CCOc1ncccc1C(=O)OCC(=O)Nc1ccc(C)c(S(=O)(=O)N2CCOCC2)c1 | 5.86%
57 | COc1ccc(C(C)=O)cc1CSc1nnc(Nc2ccc(C)cc2C)s1 | 16%
58 | COCCn1c(C)cc(C(=O)COC(=O)CNC(=O)c2ccco2)c1C | 12.1%
59 | Cc1ccc2cc(CN(C)S(C)(=O)=O)c(=O)[nH]c2c1 | 13.1%
60 | Cc1ccc(NC(=O)CC2=NC(=O)C(CC(=O)Nc3ccccc3F)S2)cc1 (stereo not drawn) | 14.5%
61 | CC(c1ccc(O)cc1)(c1ccc(O)cc1)c1ccc(CCBr)cc1 | 12.3%
62 | CN(C)/C=N/c1c(C#N)cnn1-c1ncnc2sc(-c3ccccc3)cc12 | 0.979%
63 | Cc1nn(Cc2ccccc2Cl)c(Cl)c1C(=O)OCC(=O)NCc1ccco1 | 9.54%
64 | Cc1ccnc(NC(=O)c2ccc(S(=O)(=O)N3CCCC3)cc2)c1 | 1.03%
65 | Nn1c(SCc2ccc(F)cc2)nnc1-c1cccnc1 | -2.05%
66 | Cc1cc(C(=O)N2CCN(S(=O)(=O)c3ccc(F)c(Cl)c3)CC2)c(C)o1 | -2.29%

Row | Structure (SMILES) | hERG current change (%, negative = inhibition) at 1uM
67 | COc1ccc(CCNC(=O)COC(=O)c2ccc(C)s2)cc1OC | 11.6%
68 | Cc1cc(C(=O)NCC(=O)OCC(=O)N(C)C2CCCCC2)ccc1[N+](=O)[O-] | 1.42%
69 | CC(=O)OC(C(=O)Nc1ccccc1)C(C)S(=O)(=O)c1ccccc1 (stereo not drawn) | -1.13%
70 | CCCNc1ccc(C(=O)OCC)cc1[N+](=O)[O-] | 7.84%
71 | O=C(/C=C/c1ccc(Cl)cc1)N(c1ccccn1)C1CCCCC1 | 6.06%
72 | CC(C)Oc1ccc(C(=O)Nc2ccc(C(F)(F)F)n(C)c2=O)cc1 | -3.82%
73 | Cc1ccccc1-n1sc2cc(F)ccc2c1=O | 16%
74 | CC(=O)Nc1ccc(/C=C/c2nc3ccccc3o2)cc1 | 15%
75 | O=S(=O)(Cc1ccccc1)N1CCN(C/C=C/c2ccccc2)CC1 | -2.58%
76 | O=C(Nc1ccc(F)c(F)c1)C1CCCCC1 | 13.1%
77 | CCOc1ccc2nc(SCC(=O)NCc3ccccc3)[nH]c2c1 | 14.5%
78 | COC(=O)c1cccc(NC(=O)c2ccc(OC)c(Cl)c2)c1 | -49.4%
79 | Cc1ccccc1N(CC(=O)NCCc1ccccc1)C(=O)c1csnn1 | 6.93%
80 | CCCN(CC(=O)Nc1ccccc1OC)C(=O)c1ccc2c(c1)NC(=O)C(C)S2 (stereo not drawn) | 6.95%
81 | COC(=O)C1CN(C(=O)C(C)Oc2ccc(C(C)C)cc2)c2ccccc2O1 (stereo not drawn) | 13.3%
82 | CSc1nc2ccc(NS(=O)(=O)c3ccc4c(c3)OCCO4)cc2s1 | 3.7%
83 | Cn1c(N)c(C(=O)COC(=O)C2CC(=O)N(Cc3ccccc3)C2)c(=O)n(C)c1=O (stereo not drawn) | 8.36%
84 | CSCCC(NS(=O)(=O)c1ccc2c(c1)OCCO2)C(=O)N(C)Cc1ccccc1F (stereo not drawn) | 5.61%
85 | COc1cccc(-c2cc(C(F)(F)F)nc(N3CCN(c4ccccc4)CC3)n2)c1 | 6.13%
86 | CC(C)CC(NC(=O)c1ccc(Cl)cc1)C(=O)OCc1cc([N+](=O)[O-])cc2c1OCOC2 (stereo not drawn) | 16.1%
87 | Cc1nnc(NC(=O)CSc2nc(N)c(NC(=O)c3cccs3)c(=O)[nH]2)s1 | 12.9%

From paper PMC4336329 (PLoS ONE, 2015)
